Source: the supplement of paper PMC8728848
Some of the results follow.

Columns and labels:
Experiment in all cases: glycan array binding signal (z-score within array); higher = stronger binding
Conditions in all cases: glycan notation: IUPAC condensed, linker removed
[1] = biological target: Fuc(a1-3)GlcNAc
Outline: (§1)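 Columns mapping to the same glycan were averaged after glycan names were converted to IUPAC-condensed notation. The data come from 3228 arrays in the Consortium for Functional Glycomics database, limited to those with an available protein sequence. Binding is reported as a within-array Z-score averaged across arrays of one protein sequence and across linkers.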

[2] = biological target: Fuc(a1-3)[Gal(b1-4)]Glc6S
Outline: as §1

[3] = biological target: Fuc(a1-3)[Gal(b1-4)]GlcNAc
Outline: as §1

[4] = biological target: Fuc(a1-3)[Gal(b1-4)]GlcNAc(b1-2)Man
Outline: as §1

[5] = biological target: Fuc(a1-3)[Gal(b1-4)]GlcNAc(b1-2)Man(a1-3)[Fuc(a1-3)[Gal(b1-4)]GlcNAc(b1-2)Man(a1-6)]Man(b1-4)GlcNAc(b1-4)GlcNAc
Outline: as §1

[6] = biological target: Fuc(a1-3)[Gal(b1-4)]GlcNAc(b1-2)Man(a1-3)[Fuc(a1-3)[Gal(b1-4)]GlcNAc(b1-2)Man(a1-6)]Man(b1-4)GlcNAc(b1-4)[Fuc(a1-6)]GlcNAc
Outline: as §1

[7] = biological target: Fuc(a1-3)[Gal(b1-4)]GlcNAc(b1-3)Gal(b1-3)[Fuc(a1-4)]GlcNAc
Outline: as §1

[8] = biological target: Fuc(a1-3)[Gal(b1-4)]GlcNAc(b1-3)Gal(b1-4)[Fuc(a1-3)]GlcNAc
Outline: as §1

[9] = biological target: Fuc(a1-3)[Gal(b1-4)]GlcNAc(b1-3)Gal(b1-4)[Fuc(a1-3)]GlcNAc(b1-3)Gal(b1-4)[Fuc(a1-3)]GlcNAc
Outline: as §1

[10] = biological target: Fuc(a1-3)[Gal(b1-4)]GlcNAc(b1-3)GalNAc
Outline: as §1

[11] = biological target: Fuc(a1-3)[Gal(b1-4)]GlcNAc(b1-6)GalNAc
Outline: as §1

[12] = biological target: Fuc(a1-3)[Gal(b1-4)]GlcNAc(b1-6)[Gal(b1-3)GlcNAc(b1-3)]Gal(b1-4)Glc
Outline: as §1

[13] = biological target: Fuc(a1-3)[Gal(b1-4)]GlcNAc6S
Outline: as §1

[14] = biological target: Fuc(a1-3)[Gal3S(b1-4)]Glc
Outline: as §1

[15] = biological target: Fuc(a1-3)[Gal3S(b1-4)]GlcNAc
Outline: as §1

[16] = biological target: Fuc(a1-3)[Gal3S(b1-4)]GlcNAc6S
Outline: as §1

[17] = biological target: Fuc(a1-3)[GalNAc(b1-4)]GlcNAc
Outline: as §1

[18] = biological target: Fuc(a1-3)[GalNAc(b1-4)]GlcNAc6S
Outline: as §1

[19] = biological target: Fuc(a1-4)GlcNAc
Outline: as §1

[20] = biological target: Fuc(b1-3)GlcNAc
Outline: as §1

[21] = biological target: Gal(a1-2)Gal
Outline: as §1

[22] = biological target: Gal(a1-3)Gal
Outline: as §1

[23] = biological target: Gal(a1-3)Gal(b1-3)GlcNAc
Outline: as §1

[24] = biological target: Gal(a1-3)Gal(b1-3)GlcNAc(b1-2)Man
Outline: as §1

[25] = biological target: Gal(a1-3)Gal(b1-3)GlcNAc(b1-2)Man(a1-3)[Gal(a1-3)Gal(b1-3)GlcNAc(b1-2)Man(a1-6)]Man(b1-4)GlcNAc(b1-4)GlcNAc
Outline: as §1

[26] = biological target: Gal(a1-3)Gal(b1-3)GlcNAc(b1-3)GalNAc
Outline: as §1

[27] = biological target: Gal(a1-3)Gal(b1-3)GlcNAc(b1-6)GalNAc
Outline: as §1

[28] = biological target: Gal(a1-3)Gal(b1-3)[Fuc(a1-4)]GlcNAc(b1-2)Man(a1-3)[Gal(a1-3)Gal(b1-3)[Fuc(a1-4)]GlcNAc(b1-2)Man(a1-6)]Man(b1-4)GlcNAc(b1-4)GlcNAc
Outline: as §1

[29] = biological target: Gal(a1-3)Gal(b1-4)Glc
Outline: as §1

[30] = biological target: Gal(a1-3)Gal(b1-4)GlcNAc
Outline: as §1

[31] = biological target: Gal(a1-3)Gal(b1-4)GlcNAc(b1-2)Man
Outline: as §1

[32] = biological target: Gal(a1-3)Gal(b1-4)GlcNAc(b1-2)Man(a1-3)[Gal(a1-3)Gal(b1-4)GlcNAc(b1-2)Man(a1-6)]Man(b1-4)GlcNAc(b1-4)GlcNAc
Outline: as §1

[33] = biological target: Gal(a1-3)Gal(b1-4)GlcNAc(b1-3)GalNAc
Outline: as §1

[34] = biological target: Gal(a1-3)Gal(b1-4)GlcNAc(b1-6)GalNAc
Outline: as §1

[35] = biological target: Gal(a1-3)Gal(b1-4)[Fuc(a1-3)]GlcNAc
Outline: as §1

[36] = biological target: Gal(a1-3)Gal(b1-4)[Fuc(a1-3)]GlcNAc(b1-2)Man(a1-3)[Gal(a1-3)Gal(b1-4)[Fuc(a1-3)]GlcNAc(b1-2)Man(a1-6)]Man(b1-4)GlcNAc(b1-4)GlcNAc
Outline: as §1

[37] = biological target: Gal(a1-3)GalNAc
Outline: as §1

[38] = biological target: Gal(a1-3)[Gal(a1-4)]Gal(b1-4)GlcNAc
Outline: as §1

[39] = biological target: Gal(a1-4)Gal(b1-3)GlcNAc(b1-2)Man(a1-3)[Gal(a1-4)Gal(b1-3)GlcNAc(b1-2)Man(a1-6)]Man(b1-4)GlcNAc(b1-4)GlcNAc
Outline: as §1

[40] = biological target: Gal(a1-4)Gal(b1-4)Glc
Outline: as §1

[41] = biological target: Gal(a1-4)Gal(b1-4)GlcNAc
Outline: as §1

[42] = biological target: Gal(a1-4)Gal(b1-4)GlcNAc(b1-2)Man(a1-3)[Gal(a1-4)Gal(b1-4)GlcNAc(b1-2)Man(a1-6)]Man(b1-4)GlcNAc(b1-4)GlcNAc
Outline: as §1

[43] = biological target: Gal(a1-4)Gal(b1-4)GlcNAc(b1-3)Gal(b1-4)Glc
Outline: as §1

[44] = biological target: Gal(a1-4)GlcNAc
Outline: as §1

[45] = biological target: Gal(a1-6)Glc
Outline: as §1

B1: PLU (Photorhabdus luminiscence) (protein)
chain: HHHHHHENLYFQSSIVFASIDPRSNPLQTSSQNYVDIPGLKLDVSKYSNSPCLTALITLNIPTPYASGNNFPGGNFAIVTDQGEQLAYGGFTYSSKIPENSGRMPFTLVARYSLASNVSTIKAQWSNIRGSTVHIDSYASISAVIQCNQLV
With B1 the “glycan array binding signal (z-score)” value [1] was 1.49, the “glycan array binding signal (z-score)” value [2] was -0.162 and the “glycan array binding signal (z-score)” value [3] was -0.289. The “glycan array binding signal (z-score)” value [4] was -0.353, the “glycan array binding signal (z-score)” value [5] was -0.28 and the “glycan array binding signal (z-score)” value [6] was -0.256. The “glycan array binding signal (z-score)” value [7] was -0.214, the “glycan array binding signal (z-score)” value [8] was -0.264 and the “glycan array binding signal (z-score)” value [9] was -0.134. For the same binder, the “glycan array binding signal (z-score)” value [10] was -0.246, the “glycan array binding signal (z-score)” value [11] was -0.177 and the “glycan array binding signal (z-score)” value [12] was -0.306. For the same binder, the “glycan array binding signal (z-score)” value [13] was -0.364, the “glycan array binding signal (z-score)” value [14] was -0.27 and the “glycan array binding signal (z-score)” value [15] was -0.291. For the same binder, the “glycan array binding signal (z-score)” value [16] was -0.291, the “glycan array binding signal (z-score)” value [17] was -0.102 and the “glycan array binding signal (z-score)” value [18] was -0.294. The “glycan array binding signal (z-score)” value [19] was 0.546, the “glycan array binding signal (z-score)” value [20] was -0.329 and the “glycan array binding signal (z-score)” value [21] was -0.305. For the same binder, the “glycan array binding signal (z-score)” value [22] was -0.214, the “glycan array binding signal (z-score)” value [23] was -0.229 and the “glycan array binding signal (z-score)” value [24] was -0.235. For the same binder, the “glycan array binding signal (z-score)” value [25] was -0.263, the “glycan array binding signal (z-score)” value [26] was -0.249 and the “glycan array binding signal (z-score)” value [27] was -0.253. The “glycan array binding signal (z-score)” value [28] was -0.018, the “glycan array binding signal (z-score)” value [29] was -0.284 and the “glycan array binding signal (z-score)” value [30] was -0.298. For the same binder, the “glycan array binding signal (z-score)” value [31] was -0.304, the “glycan array binding signal (z-score)” value [32] was -0.135 and the “glycan array binding signal (z-score)” value [33] was -0.331. For the same binder, the “glycan array binding signal (z-score)” value [34] was -0.319, the “glycan array binding signal (z-score)” value [35] was -0.21 and the “glycan array binding signal (z-score)” value [36] was -0.243. For the same binder, the “glycan array binding signal (z-score)” value [37] was -0.335, the “glycan array binding signal (z-score)” value [38] was -0.209 and the “glycan array binding signal (z-score)” value [39] was -0.207. The “glycan array binding signal (z-score)” value [40] was -0.261, the “glycan array binding signal (z-score)” value [41] was -0.199 and the “glycan array binding signal (z-score)” value [42] was -0.137. The “glycan array binding signal (z-score)” value [43] was -0.328, the “glycan array binding signal (z-score)” value [44] was -0.279 and the “glycan array binding signal (z-score)” value [45] was -0.207.
